Source: the RNAGym collection of RNA variant scans (doi:10.1073/pnas.2313332121)
This sample is rich in variants without activity.

B1: TPR 5TU (parent)
chain: GGAUCUUCUCGAUCUAACAAAAAAGACAAAUCUGCCACAAAGCUUGAGAGCAUCUUCGGAUGCAGAGGCGGCAGCCUUCGGUGGCGCGAUAGCGCCAACGUUCUCAACUAUGACACGCAAAACGCGUGCUCCGUUGAAUGGAGUUUAUCAUG

Variants of: B1
Assay: polymerase ribozyme fitness, log enrichment relative to wild type (log ratio); higher = more active; in vitro selection for triplet polymerase activity
Summary of the method: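 In triplicate, a single round of in vitro selection was run on each mutant library, PCR-built and transcribed, covering one subunit of a heterodimeric triplet polymerase ribozyme. Frozen incubation at −7 °C followed annealing with a biotinylated primer, partner subunit and triplets, and extended constructs were then gel-excised, streptavidin-captured and taken through RT-PCR. Fitness is the logarithm of genotype enrichment over wild-type enrichment, from inverse-variance-weighted replicate averages of Illumina-sequenced inputs and outputs. […] only genotypes with ≥10 input reads and ≥1 read per output were kept.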

Point of comparison: A16U C85U U144C, “polymerase ribozyme fitness (log ratio)” value -2.3. Against it:
- A16U C85A C99U A138G — lower, ≤ -4.2
- A16U C85U C103G U144A — lower, ≤ -4.2
- A16U C87A G100A — lower, ≤ -4.2
- A16U C87G — lower, ≤ -4.2
- A16U C87U — lower, -2.65
- A16U C93U — lower, -2.81
- A16U C96A C116U G140A — lower, ≤ -4.2
- A16U C125A — higher, -2.06
- A16U C129A — lower, -3.81
- A16U G34U G71A G94A U102G U151A — lower, ≤ -4.2
- A16U G42A C63G — lower, ≤ -4.2
- A16U G42C A147U — lower, ≤ -4.2
- A16U G46C A110C U111C — lower, ≤ -4.2
- A16U G48C C85U U102A G112C — lower, ≤ -4.2
- A16U G50A A60C G83C G141C — lower, ≤ -4.2
- A16U G50C G58A G65A C125A G136A A142U — lower, ≤ -4.2
- A16U G50C U56A G84C A97U U101A A113C A119G G133U A137U — lower, ≤ -4.2
- A16U G50U A66U G92A — lower, ≤ -4.2
- A16U G50U G58C C118G A120C G124C G143U — lower, ≤ -4.2
- A16U G50U U61A C105A C123U — lower, ≤ -4.2
- A16U G58A C93A — lower, -3.46
- A16U G59A C69G A91G — lower, ≤ -4.2
- A16U G71A A73G C93U A113C C118A G140A — lower, ≤ -4.2
- A16U G74C A91C G141C — lower, ≤ -4.2
- A16U G74C C93A U101A G143A G152U — lower, ≤ -4.2
- A16U G83A A89G U109G U130G C132G — lower, ≤ -4.2
- A16U G83C C99A — lower, -3.97
- A16U G84A — within 0.2 log units, -2.41
- A16U G84U G86U C93G U144C — lower, -3.51
- A16U G86U C87A — lower, ≤ -4.2
- A16U G94A — within 0.2 log units, -2.47
- A16U G126U C131A — lower, ≤ -4.2
- A16U U31A C38G A41C G62C A120U A142G A147U — lower, ≤ -4.2
- A16U U44A G71C C96G A106U U127C G133U G141C U148C — lower, ≤ -4.2
- A16U U44G G48A C87U U102G C131U C132G — lower, ≤ -4.2
- A16U U45A G50A U148G A150C — lower, ≤ -4.2
- A16U U53A A66G C87A — lower, ≤ -4.2
- A16U U53A C75A C93A C103G U130A — lower, ≤ -4.2
- A16U U53C C54U U55G C93U — lower, ≤ -4.2
- A16U U56A G83A U109C U111G — lower, ≤ -4.2
- A16U U56G G84A U102A G141U — lower, -3.81
- A16U U61A C95U — lower, -3.06
- A16U U82G C87U A122C — within 0.2 log units, -2.32
- A16U U109G A110C A120G C125U G143C U151G — lower, ≤ -4.2
- A17C — higher, 0.315
- A17C A19G C51U G59U C75A A91U C116G A121C — lower, ≤ -4.2
- A17C A19U — higher, 0.475
- A17C A19U G58A A97G U102G A119G — lower, -3.63
- A17C A20C C36G A47U C79A G94U C99U U127A U144C C149A — lower, ≤ -4.2
- A17C A20G C35U C36A G50U G140C — lower, ≤ -4.2
- A17C A21C A40G C87G A91G G100C — lower, ≤ -4.2
- A17C A21G A22U U55A C57U C85A G86U U134G G152A — lower, ≤ -4.2
- A17C A21G C27G A52C G88C — lower, ≤ -4.2
- A17C A21U C43A U55C C85A A89G C131U — lower, ≤ -4.2
- A17C A21U G25U G84A — lower, -2.95
- A17C A21U G48A A66C G84A — lower, ≤ -4.2
- A17C A21U G48A G84A U90C C99U — lower, ≤ -4.2
- A17C A22G C69G U78G A150G — lower, ≤ -4.2
- A17C A22U A37U A60G G71U U78A C93A U104G A122C — lower, ≤ -4.2
- A17C A23C C32U G84U — lower, ≤ -4.2
- A17C A23C U31A C35G C43U U144G — lower, ≤ -4.2
- A17C A23U A29U A39C U53A C79G G94A C116U — lower, ≤ -4.2
- A17C A23U A52U U56C — lower, ≤ -4.2
- A17C A24C U146G — lower, ≤ -4.2
- A17C A24U C114A — lower, -3.86
- A17C A28G G42U C57G A73G U78A G94C G126A — lower, ≤ -4.2
- A17C A28G G68U U78C A89U C95A A107G A119G U144C U148G — lower, ≤ -4.2
- A17C A28U G59A A60C C85U C93A C99U — lower, ≤ -4.2
- A17C A30C — lower, -3.82
- A17C A30G C79G C87G C96G C105A — lower, ≤ -4.2
- A17C A37U G50C G133U — lower, ≤ -4.2
- A17C A39C A52G G83C G92C U104G G126U G140C — lower, ≤ -4.2
- A17C A40C G74C A113U A115G U134G — lower, ≤ -4.2
- A17C A40C G83C U109G — lower, -3.6
- A17C A40G — higher, -1.63
- A17C A40U G42A A52U G84A C85G U102A C118U — lower, ≤ -4.2
- A17C A40U U53A C76G C93U U146G — lower, ≤ -4.2
- A17C A40U U55A A60U A66C C85G C116G G141C A147U — lower, ≤ -4.2
- A17C A47C C95U C116U — higher, -0.195
- A17C A47U G58A G83U G94A G126U — lower, ≤ -4.2
- A17C A49C G59U G86U G141U — lower, ≤ -4.2
- A17C A52C C79A G81A G84U A110G G112C — lower, ≤ -4.2
- A17C A52G G81A G83A A98U — higher, -0.507
